From the supplement of paper PMC3334620
Whole data set: some 33,000 sequences, median “E-score (-0.5 to 0.5)” near -0.021, cut for the highest 2% near 0.32. The list shows a part of the results.

What follows are sequences tested against T1, Zap1 (UniProt P47043) (assay: PBM E-score (8-mer binding enrichment) (E-score (-0.5 to 0.5)); higher = stronger / more preferred TF binding; most listed sequences are background and not binding sites). Conditions: protein concentration: 200 nM; construct: GST-full length.
T1 sequence: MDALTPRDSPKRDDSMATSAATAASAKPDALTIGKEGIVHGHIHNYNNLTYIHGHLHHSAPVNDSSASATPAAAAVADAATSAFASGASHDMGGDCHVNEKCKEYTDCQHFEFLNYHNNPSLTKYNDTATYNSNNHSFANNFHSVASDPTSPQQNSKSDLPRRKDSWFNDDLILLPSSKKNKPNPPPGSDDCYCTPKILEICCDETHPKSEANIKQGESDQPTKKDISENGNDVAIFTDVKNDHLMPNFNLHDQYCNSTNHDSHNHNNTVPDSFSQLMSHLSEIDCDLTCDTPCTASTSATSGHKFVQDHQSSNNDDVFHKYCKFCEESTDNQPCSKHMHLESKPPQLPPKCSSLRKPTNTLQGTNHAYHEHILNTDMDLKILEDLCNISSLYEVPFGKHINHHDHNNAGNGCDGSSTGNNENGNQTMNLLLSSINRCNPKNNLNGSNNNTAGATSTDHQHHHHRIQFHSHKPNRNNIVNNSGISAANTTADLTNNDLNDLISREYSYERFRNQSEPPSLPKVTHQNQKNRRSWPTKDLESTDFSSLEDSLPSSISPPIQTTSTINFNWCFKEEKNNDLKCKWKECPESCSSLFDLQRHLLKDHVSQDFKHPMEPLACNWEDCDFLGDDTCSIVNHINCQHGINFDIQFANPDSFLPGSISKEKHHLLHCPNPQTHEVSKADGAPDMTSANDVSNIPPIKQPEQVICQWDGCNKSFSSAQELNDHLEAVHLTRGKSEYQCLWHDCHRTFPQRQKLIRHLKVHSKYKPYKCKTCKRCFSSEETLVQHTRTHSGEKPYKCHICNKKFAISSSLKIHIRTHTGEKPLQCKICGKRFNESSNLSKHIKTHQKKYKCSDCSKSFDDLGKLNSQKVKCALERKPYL
How it was run: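 E-scores (a modified Wilcoxon-Mann-Whitney statistic) were assigned by the Universal PBM Analysis Suite to every ungapped eight-base word pooled with its reverse complement. The input came from universal all-10-mer Agilent arrays made double-stranded by primer extension and probed with GST-tagged yeast transcription factors at about 100-200 nM. Fluorescent anti-GST detected bound protein, and masliner normalised the scans.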

Sequence	PBM E-score
CGCCGAAC	-0.15
CGCAGCCA	-0.119
GAGTGAGA	-0.236
AGTTGGGA	-0.173
ATAGCCAT	-0.133
ACGACACA	0.0872
CTACCAGA	0.0484
ATAGCTCG	-0.116
AACCTGTC	-0.058
CTGATGAA	0.0655
TGTAATAA	0.133
ATTCGACC	0.0544
CGCGTTCC	-0.0832
CATGCCAC	-0.227
AACAAGAG	-0.0627
CTTTCACA	0.165
AAAATTAA	0.102
GCGGCCTA	-0.0186
CTACTCAG	-0.0932
CTAAGGGA	-0.0456
TACGTGAA	0.101
AGCGGTCC	-0.0117

Sequence	PBM E-score
AATGCCTG	-0.208
TATCGCCA	-0.00426
CATCACAA	0.00512
ATAAGTTC	0.0418
CCCGACGG	0.192
TATCGACA	0.0537
ACAAGTCT	-0.0566
GAACTACA	0.0148
GTGATCCA	-0.0844
AGACATAT	0.00709
CACTCGTC	-0.17
AAAGCCGG	0.0494
AGCGGCGC	-0.173
CGACATCA	-0.0864
GGGAGCCA	-0.142
AGATAGTA	0.128
GCCCTTAA	0.112
GAAGGGTC	0.211
AGGTTTGG	0.0078
ACAAGTCC	-0.0469
ATCTAGAT	0.246
CAGTGCCA	-0.262

Sequence	PBM E-score
ATCAGTCA	-0.0936
ATGAACTC	-0.149
CTCTTAGC	0.0564
GAATAACA	0.181
AAATTGCG	0.0122
AATAGACA	-0.162
AGGAGAAA	-0.28
CTCTATGA	0.0051
GACCACTA	0.0858
GTGTACAA	0.14
ACCGGAGT	0.0636
GGCTTTAC	-0.132
AAGCCATA	-0.124
ACGCTCCC	-0.291
GAACGGTC	-0.0968
TCTTTTCA	0.0888
AGGAAAAT	0.0468
ATTACCAC	0.243
AATATATC	0.039
GAAGCTTA	-0.0597
AACTGACA	0.0328
CTATGTAC	-0.0102

Sequence	PBM E-score
CGGCACCA	0.00664
GAGACGGC	-0.08
AACTAATC	-0.0851
GATTAAGA	0.13
GGATCAGA	-0.227
AATACCAA	0.0327
GGTCGAAC	0.059
GGTAGTAA	0.078
AAGGTCGA	0.176
AGATTGCG	0.0227
GTATCTCA	0.0772
GCGCGCTA	-0.00912
CACCGTCA	-0.0649
AATCAGAC	-0.0167
CAGAGCTG	-0.158
CTGGGAAA	0.0242
AGTCATAA	-0.064
GGAGAAAA	-0.0355
TCATCTAA	0.127
AGATGACA	-0.0613
